Experimental data taken from PubChem BioAssay AID686978 (National Center for Advancing Translational Sciences (NCATS), 2013).
About 64,000 (15%) of roughly 420,000 compounds were called active. The shares of active, inactive and inconclusive entries below differ from those in the screen. Calls come from the whole dose curve; as a rule, active = well fitted inhibition curve with a large enough effect; inconclusive = small, poorly fitted or top-dose-only effect; inactive = flat fitted curve, though single readings scatter. No potency is given beside an inconclusive call; the fits are too rough.

Assay: qHTS for Inhibitors of human tyrosyl-DNA phosphodiesterase 1 (TDP1): qHTS in cells in absence of CPT; note: nearly all actives have a fitted effect of over 55% in size
Settings: DT40 Tdp1-/- hTDP1 cells, no CPT, ATP luminescence, 48 h; activity change, negative = growth inhibition: at 46.2 µM (top of the series) unless noted
Summary of the method: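 A cellular qHTS used chicken DT40 cells lacking endogenous Tdp1 but carrying stably transfected human TDP1. Compounds were applied without camptothecin, and cell growth kinetics were judged by ATP-dependent luminescence after ≥48 hr.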
% is set by controls: 0 for no effect and ±100 for the full control effect; potency is the fitted concentration of half-maximal effect; tags give direction and shape of the fitted curve.

| Compound | Potency | activity change, negative = growth inhibition |
| --- | --- | --- |
| CCn1c(SCC(=O)N2CCCCC2)nc2c(c1=O)SCC2 | inconclusive [inhibitor, partial curve, poor fit] | – |
| COc1ccc(-n2c(=O)c3ccccc3n(CC(=O)NC3CCCCC3)c2=O)cc1OC | inconclusive [inhibitor, single point] | – |
| Nc1ccc2oc(-c3ccccc3Cl)cc(=O)c2c1O | inconclusive [inhibitor, single point] | – |
| COc1ccc(C(=O)Nc2cc(-c3ccc(C)cc3)no2)cc1 | inconclusive [inhibitor, partial curve] | – |
| Cc1ccc(S(=O)(=O)C2(C(=O)NCCc3ccccc3)CC2)cc1 | – | inactive: 22.8% |
| COc1ccc(C(CNC(=O)c2ccc(S(=O)(=O)Nc3ccccc3C)cc2)N2CCOCC2)cc1 (configuration not stated) | – | inactive: -29.7% |
| CCOC(=O)N1CCc2c(sc(NCc3cccs3)c2C(=O)Nc2ccc(OC)cc2OC)C1 | inconclusive [inhibitor, partial curve, poor fit] | – |
| O=C(c1cc(C(F)(F)F)cc(C(F)(F)F)c1)N1CCC2(CCN(Cc3nccs3)CC2)CC1 | inconclusive [inhibitor, single point] | – |
| CCCc1nc2ccccc2n1C(C(=O)NC(C)(C)C)C1CC1 (configuration not stated) | inconclusive [inhibitor, single point] | – |
| COc1ccccc1-c1nnc(NC(=O)c2ccc(S(=O)(=O)N3CCCC3)cc2)o1 | active: 9.2 µM | – |
| Cc1cc(-c2cc(C)c(N)cc2C)c(C)cc1N | inconclusive [inhibitor, single point] | – |
| COc1ccc(/C=C/C(=O)Nc2ccc(-c3nnc4n3CCCCC4)cc2)c(OC)c1 | active: 2.31 µM | – |
| O=C(COC(=O)/C=C/c1ccc(S(=O)(=O)N2CCOCC2)cc1)NCc1ccc(Cl)cc1 | active: 25.9 µM | – |
| N#CCC(=O)N/N=C\c1ccccc1OC/C=C/c1ccccc1 | active: 4.11 µM | – |
| CCc1ccc(S(=O)(=O)N(C(=O)c2ccncc2)c2ccc(OC(=O)c3ccncc3)cc2)cc1 | inconclusive [inhibitor, single point] | – |
| COc1ccc(N(CC(=O)NCc2ccc3c(c2)OCO3)C(=O)CCC(=O)Nc2ccccn2)cc1 | – | inactive: 1.77% |
| Cc1ccc(NC(=O)c2ccc(CNS(=O)(=O)c3ccc4c(c3)C(C)(C)C(=O)N4C)cc2)cc1F | active: 14.6 µM | – |
| CCC(C(=O)N1CCOCC1)n1c2ccccc2c2nc(=O)cc(C)n21 (configuration not stated) | – | inactive: 1.12% |
| CCCCOc1ccccc1C(=O)N(Cc1cccc(F)c1)C1CCS(=O)(=O)C1 (configuration not stated) | inconclusive [inhibitor, single point] | – |
| O=C(OCCN1CCCCC1)c1c[nH]c2ccccc12 | inactive | – |
| S=c1[nH]nc(COc2ccccc2)n1Cc1ccccc1 | inconclusive [inhibitor, single point] | – |
| Cc1ccc(NC2C(=O)NC(=O)NC2=O)cc1 | – | inactive: -7.23% |
| O=C(C[C@@H]1C/C=C\CCC(=O)OC[C@@H]2CCCN2C1=O)NCCO | – | inactive: 6.47% |

| Compound | Potency | activity change, negative = growth inhibition |
| --- | --- | --- |
| CCOC(=O)C1=C(CN(C)Cc2ccccc2)NC(=O)NC1c1ccc(OC)cc1 (configuration not stated) | inconclusive [inhibitor, single point] | – |
| CNc1oc(-c2cccc3ccccc23)nc1C#N | – | inactive: -19.6% |
| Fc1ccc(OCCCn2ccnc2)cc1 | – | inactive: 14.3% |
| Cn1c(=O)c(C(=O)CN2CCCCC2)c(N)n(Cc2ccccc2)c1=O | – | inactive: 13.5% |
| Cc1noc(C)c1C(=O)N1CCC[C@@]2(CCN(Cc3ccc(C#N)cc3)C2)C1 | – | inactive: -12.5% |
| O=C(/C=C/c1ccc(Cl)cc1)NC(=S)Nc1ccc(NC(=O)c2ccco2)cc1 | active: 8.2 µM | – |
| COC(=O)Nc1ccc(S(=O)(=O)N2CCC(C(=O)N3CCCC(C)C3)CC2)cc1 (configuration not stated) | inconclusive [inhibitor, partial curve] | – |
| O=C(NCC(c1cccnc1)N1CCc2ccccc21)c1ccc(F)cc1 (configuration not stated) | active: 18.4 µM | – |
| CCn1cnc2cc(NS(=O)(=O)c3ccc(C)cc3)ccc21 | inconclusive [inhibitor, partial curve] | – |
| Cc1ccc(NS(=O)(=O)c2cccc(C(=O)NCC(c3cccs3)N(C)C)c2)cc1 (configuration not stated) | inconclusive [inhibitor, single point] | – |
| CCCCc1c(O)nc(SCC(=O)N2CCCCCC2)[nH]c1=O | inconclusive [inhibitor, single point] | – |
| O=S(=O)(c1cccc(S(=O)(=O)N2CCC(n3nnc4ccccc43)CC2)c1)N1CCCCC1 | inconclusive [inhibitor, single point] | – |
| COc1ccc(C(=O)CC(=O)C(=O)Nc2cc([N+](=O)[O-])ccc2OC)cc1 | inconclusive [inhibitor, partial curve] | – |
| COc1cccc(/C=C/C(=O)OCC(=O)NCc2ccc3c(c2)OCO3)c1 | inconclusive [inhibitor, single point] | – |
| O=C(C(=O)N1CCCc2ccccc21)N1CCCc2ccccc21 | inconclusive [inhibitor, single point] | – |
| COc1ccc(OC(C)C(=O)NCc2nc(-c3cccc(C)c3)no2)cc1 (configuration not stated) | inconclusive [inhibitor, partial curve, poor fit] | – |
| CCCC1C2C(=O)N(c3ccc(OC)cc3)C(=O)C2ON1c1ccccc1 (configuration not stated) | – | inactive: -5.46% |
| CC(C)Oc1ccc(C(=O)Nc2ccc(S(=O)(=O)N3CCN(C)CC3)cc2)cc1 | inconclusive [inhibitor, single point] | – |
| CC1CC(C)CN(C(=O)C(C)N(C)CC(=O)Nc2ccc(F)cc2)C1 (configuration not stated) | inconclusive [inhibitor, single point] | – |
| Cc1ccc(CNCC(O)(c2ccc(F)cc2)c2ccc(F)cc2)cc1 | inconclusive [inhibitor, single point] | – |
| C=C[C@]1(C)C[C@@H](OC(=O)CO)[C@]2(C)[C@H](C)CC[C@]3(CCC(=O)[C@H]32)[C@@H](C)[C@@H]1O | inconclusive [inhibitor, single point] | – |
| Cc1ccccc1N1CCN(C2CCCN(C(=O)c3cn4cccc(C)c4n3)C2)CC1 (configuration not stated) | active: 8.2 µM | – |
| C=CCn1c(=O)c2ccccc2n2c(SCC(N)=O)nnc12 | inconclusive [inhibitor, full curve, poor fit] | – |

| Compound | Potency | activity change, negative = growth inhibition |
| --- | --- | --- |
| COc1ccc(S(=O)(=O)N2CCCCCC2)cc1C(=O)OCc1c(C)noc1C | inconclusive [inhibitor, single point] | – |
| O=C(Cn1nnc(-c2cc(C(F)(F)F)cc(C(F)(F)F)c2)n1)NNC(=S)Nc1ccc(Cl)cc1 | inconclusive [inhibitor, single point] | – |
| Cc1c(C(=O)N(Cc2ccco2)Cc2ccccc2Cl)oc2ccc(F)cc12 | active: 14.6 µM | – |
| CN(C)c1ccc(NC(=O)CSc2nc3ccsc3c(=O)n2CCCCCC(=O)O)cc1 | – | inactive: -20% |
| COc1cc(OC)c(NC(=O)C(Cc2ccccc2)NS(=O)(=O)c2cccc3nsnc23)cc1Cl (configuration not stated) | inconclusive [inhibitor, single point] | – |
| O=C(Nc1ccc2nc(SCCOc3ccccc3Cl)sc2c1)c1ccc2c(c1)OCO2 | inconclusive [inhibitor, partial curve] | – |
| CCCCC(=O)NC1(C(F)(F)F)C(=O)Nc2c1c(=O)[nH]c(=O)n2-c1ccc(C)c(C)c1 (configuration not stated) | – | inactive: -5.57% |
| COCCn1c(SCC(=O)NC2CCCCC2C)nnc1-c1ccncc1 (configuration not stated) | – | inactive: -6.79% |
| COc1ccc(CC(=O)Nc2cc(-c3cn4cccnc4n3)ccc2OC)cc1 | inconclusive [inhibitor, single point] | – |
| C#CCN(C[C@H]1[C@H](OC(=O)NCCCCCC)[C@H](OC(=O)NCCCCCC)C[C@H]2C(=O)N(c3ccccc3)C(=O)[C@@H]12)S(=O)(=O)c1ccc(C)cc1 | inconclusive [inhibitor, single point] | – |
| COc1ccccc1-c1cccc(-c2nc(C(=O)N3CCCCC3)cc3c2[C@H](CCO)N(S(=O)C(C)(C)C)C3)c1 (some centres not stated) | active: 18.4 µM | – |
| COc1ccc(-c2cc(C(=O)Nc3c(C)nn(Cc4ccccc4Cl)c3C)no2)cc1OC | inconclusive [inhibitor, single point] | – |
| CC1Sc2ccc(C(=O)Nc3cc(S(C)(=O)=O)ccc3Cl)cc2NC1=O (configuration not stated) | inconclusive [inhibitor, partial curve] | – |
| Cc1ccc(S(=O)(=O)N2CCN(c3nc(-c4cncn4C)nc4ccccc34)CC2)cc1 | inconclusive [inhibitor, single point] | – |
| CN1CCN(Cc2cccc(Oc3ccc(Cl)cc3)c2)CC1 | inconclusive [inhibitor, single point] | – |
| Cc1nc(C(F)(F)F)ccc1C(=O)N1CCC1(C)C(=O)Nc1ccc2c(c1)OCO2 (configuration not stated) | inconclusive [inhibitor, single point] | – |
| CCCCCC(=O)Nc1cc(S(=O)(=O)N2CCOCC2)ccc1N1CCCCC1 | active: 20.6 µM | – |
| COc1cccc(NC(=O)CSC2=Nc3ccccc3C3=NC(CC(=O)NCc4ccc5c(c4)OCO5)C(=O)N23)c1 (configuration not stated) | inconclusive [inhibitor, single point] | – |
| Cc1ccccc1CS(=O)(=O)c1cn(CC(=O)N2CCC(C)CC2)c2ccccc12 | active: 13 µM | – |
| Cc1nn(C)c(=O)c(N)c1-c1cc(-c2ccc(Cl)c(Cl)c2)n[nH]1 | active: 6.51 µM | – |
| Cc1cccc(Nc2nc3c(S(=O)(=O)c4ccccc4)nnn3c3ccccc23)c1C | inconclusive [inhibitor, partial curve, poor fit] | – |
